From PubChem BioAssay AID686979 (National Center for Advancing Translational Sciences (NCATS), 2013)
The whole screen tested about 420,000 compounds, of which about 50,000 (12%) were called active. The inconclusive results got no clear call from the source; some entries with a clear call stand among them for comparison. The call rests on the fitted dose curve; in most records, active means well fitted inhibition curve with a large enough effect; inconclusive means small, poorly fitted or top-dose-only effect; inactive means flat fitted curve, though single readings scatter. No potency is given beside an inconclusive call; the fits are too rough.
On the % scale 0 is the no-effect control and ±100 the full control effect; potency means the concentration at half of the fitted maximal effect; tags describe the fitted curve by direction and shape.

Assay: qHTS for Inhibitors of human tyrosyl-DNA phosphodiesterase 1 (TDP1): qHTS in cells in presence of CPT; further: nearly all actives have a fitted effect of over 55% in size
Details: chicken DT40 Tdp1-/-;hTDP1 cells + 20 nM CPT, ATP luminescence, 48 h; activity change, negative = growth inhibition: at 46.2 µM (top of the series) unless noted
Procedure, shortened: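 Chicken DT40 Tdp1-/- cells stably complemented with human TDP1 were seeded at 400 cells/well in medium containing 20 nM camptothecin, exposed to pin-transferred compounds, and grown at 37 °C for at least 48 hr. Viability was read as ATP luminescence.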
In the case of `CC(=O)Nc1cccc(-c2cn3ccc(C)cc3n2)c1`, the “activity change, negative = growth inhibition” value is reported as inactive: -16.3%.
With `CC(=O)c1cc(O)c2ccccc2c1O` the Potency was active: 14.6 µM.
With `NCCN1C(=O)c2ccccc2C1(O)c1ccc(Cl)cc1` (stereo unspecified) the Potency was inconclusive [inhibitor, single point].
With `O=C(COc1ccc(S(=O)(=O)N2CCCC2)cc1Cl)NC1CCCC1` the Potency was inconclusive [inhibitor, partial curve].
For `O=[N+]([O-])c1ccc(NCCNc2ccc([N+](=O)[O-])cc2)cc1`, the “activity change, negative = growth inhibition” value was inactive: -19.1%.
With `Cc1ccccc1OCC(=O)Nc1ccncc1` the Potency was inconclusive [inhibitor, single point].
With `COC(=O)c1sccc1S(=O)(=O)N1CCN(c2ccccc2)CC1` the “activity change, negative = growth inhibition” value was inactive: -27.2%.
In the case of `Oc1cc2c(cc1CN1CCN(c3cccc(C(F)(F)F)c3)CC1)CCC2`, the “activity change, negative = growth inhibition” value is reported as inactive: -26.4%.
For `COC(=O)c1cccc(NC(=O)/C=C/c2ccc3c(c2)OCO3)c1`, the Potency was inconclusive [inhibitor, single point].
In the case of `Cc1cc(C)cc(NC(=S)N2CCC(NC(=O)c3ccco3)CC2)c1`, the “activity change, negative = growth inhibition” value is reported as inactive: -14.1%.
For `COc1ccccc1C1C=C(c2ccc(F)cc2)Nc2nc(-c3ccc(Cl)cc3)nn21` (stereo unspecified), the Potency was active: 20.6 µM.
In the case of `COc1ccc(CNCC(O)(c2ccccc2)c2ccccc2)cc1`, the Potency is reported as inconclusive [inhibitor, partial curve, poor fit].
In the case of `COc1cc(/C=C2/C(=O)ON=C2C)ccc1OCc1cccc(F)c1`, the Potency is reported as inconclusive [inhibitor, single point].
In the case of `CCN(CC)S(=O)(=O)c1ccc2c(c1)N(CC(=O)NCCCN1CCN(c3ccccc3F)CC1)C(=O)CO2`, the Potency is reported as active: 23.1 µM.
In the case of `CCc1ccc2[nH]c(=O)c(CN(Cc3ccccc3)Cc3nnnn3C(C)(C)C)cc2c1`, the Potency is reported as active: 14.1 µM.
For `CCOC(=O)C(Cc1nc(OCc2ccccc2)cc(OCc2ccccc2)n1)=NO`, the Potency was inconclusive [inhibitor, single point].
For `COc1cccc(NC(=O)NCc2ccc3c(c2)CCN3C(=O)c2ccccc2)c1`, the Potency was inconclusive [inhibitor, single point].
In the case of `CCCCCOc1ccc(CN2CCOCC2)cc1Cl`, the “activity change, negative = growth inhibition” value is reported as inactive: -24.5%.
In the case of `COc1ccccc1C(=O)NCCC(=O)N1CCN(c2ccc(C(F)(F)F)cn2)CC1`, the Potency is reported as active: 23.1 µM.
With `Nc1ncnc2c1ncn2C1CC(O)C(CO)O1` (stereo unspecified) the Potency was active: 1.16 µM.
For `COc1ccc(N2CCN(Cc3nc(N)nc(Nc4ccccc4OC)n3)CC2)cc1`, the Potency was inconclusive [inhibitor, partial curve, poor fit].
For `O=C(NNC(=O)c1ncc(Cl)c(Cl)c1Cl)c1ccc(F)cc1`, the Potency was inconclusive [inhibitor, single point].
With `COc1ccc(Cl)cc1C(=O)NC(C)C` the “activity change, negative = growth inhibition” value was inactive: 7.31%.
For `COc1ccccc1C(=O)NC(=S)N1CCCc2ccccc21`, the Potency was inconclusive [inhibitor, partial curve].
With `Cc1ccc(S(=O)(=O)NCCCNS(=O)(=O)c2ccccc2[N+](=O)[O-])cc1` the Potency was inconclusive [inhibitor, single point].
For `O=C(CC(C(=O)c1ccccc1)c1ccccc1)c1ccccc1` (stereo unspecified), the Potency was inconclusive [inhibitor, single point].
For `Cc1onc(-c2ccccc2Cl)c1C(=O)Nc1ccc(-c2nnc3n2CCCCC3)cc1`, the Potency was inconclusive [inhibitor, single point].
For `O=C(NCc1ccccc1)C(c1ccc(-c2ccccc2)cc1)n1c(=O)c(-c2cc3ccccc3[nH]2)nc2ccccc21` (stereo unspecified), the Potency was inconclusive [inhibitor, single point].
With `Cc1ccc(OCC(=O)NN2C(=O)c3ccccc3C2=O)c(C)c1` the “activity change, negative = growth inhibition” value was inactive: -3%.
In the case of `COc1cc(OC)cc(C(=O)Nc2cccc3c2CCCC3)c1`, the Potency is reported as inconclusive [inhibitor, partial curve, poor fit].
With `O=C(CCN1CCCO1)N1CCCC(N2CCN(c3cccc(C(F)(F)F)c3)CC2)C1` (stereo unspecified) the “activity change, negative = growth inhibition” value was inactive: -2.8%.
With `CCOC(=O)C(Cc1ccccc1)NC(=O)CCc1nnc2ccc(N3CCCC3)nn12` (stereo unspecified) the Potency was inconclusive [inhibitor, single point].
With `COc1ccc(CCNc2ccc(C(CC(N)=O)NC(=O)Cc3cccc4ccccc34)cc2[N+](=O)[O-])cc1` (stereo unspecified) the Potency was active: 23.1 µM.
For `O=[N+]([O-])c1cc([N+](=O)[O-])c(Oc2cc(F)cc(F)c2)cc1NN1CCCCC1`, the Potency was active: 18.4 µM.
With `CN(CCc1ccccn1)Cc1ccc(Cl)c(Cl)c1` the “activity change, negative = growth inhibition” value was inactive: -0.505%.
For `CC(C)c1ccc(C2N3CC4(C)CN2CC(c2ccccc2)(C3)C4=O)cc1` (stereo unspecified), the Potency was inconclusive [inhibitor, single point].
In the case of `Cc1cccc(CN2CCN(C3CN(Cc4ccccc4)S(=O)(=O)C3)CC2)c1` (stereo unspecified), the Potency is reported as inconclusive [inhibitor, single point].
For `Cc1cc(C)c(NC(=O)CSc2nc3ccc(NC(=O)CSc4nnnn4-c4ccccc4)cc3s2)c(C)c1`, the Potency was inconclusive [inhibitor, single point].
With `CCc1ccc(NC(=O)c2cc(C(C)=O)n3ccccc23)cc1` the Potency was inconclusive [inhibitor, single point].
In the case of `CC[C@@H](C)[C@@H]1CN([C@@H](CN2CCC[C@H]2CN2C(N)=NC[C@H]2C(C)C)C(C)C)C(=N)N1CCc1ccc(Cl)c(Cl)c1`, the Potency is reported as inconclusive [inhibitor, single point].
For `CCc1nn(-c2ccccc2)c2nc(-c3ccccc3OC)c3cc(OC)c(OC)cc3c12`, the Potency was active: 18.4 µM.
In the case of `CCOC(=O)c1scc(-c2ccccc2)c1S(=O)(=O)Nc1ccccc1F`, the Potency is reported as inconclusive [inhibitor, single point].
In the case of `COc1cc(NC(=O)c2ccc(-c3ccnn3C)c3ccoc23)cc(OC)c1OC`, the Potency is reported as inconclusive [inhibitor, single point].
With `CCOC(=O)N1CCN(C(=O)c2ccc(-n3c(C)ccc3C)cc2)CC1` the Potency was inconclusive [inhibitor, single point].
In the case of `Cc1ncc2c(c1CNC(=O)c1ccc3c(c1)OCO3)CCN(C(=O)c1cnsn1)C2`, the activity change, negative = growth inhibition is reported as inactive: 6.25% [at 9.04 µM].
With `CCCCN1C(=O)c2[nH]nc(-c3ccccc3O)c2C1c1cccc(OCc2ccccc2)c1` (stereo unspecified) the Potency was inconclusive [inhibitor, single point].
For `C[C@H](c1ccccc1)N1C[C@H](COCc2ccccc2)Oc2cc(N3CC[C@@H](N(C)C)C3)ccc2S1(=O)=O`, the “activity change, negative = growth inhibition” value was inactive: 9.94%.
With `O=C(Cn1c(=O)oc2cc(S(=O)(=O)N3CCCCC3)ccc21)Nc1cccc(Cl)c1` the Potency was active: 8.2 µM.
In the case of `CC1CC(C)CN(C(=O)c2cc3cc(Br)cc(Br)c3o2)C1` (stereo unspecified), the “activity change, negative = growth inhibition” value is reported as inactive: -2.12%.
In the case of `Cc1cc(C)c(Cn2c3ccccc3c3cnn(CC(=O)NC4CCC(C)CC4)c(=O)c32)c(C)c1` (stereo unspecified), the Potency is reported as active: 13 µM.
For `CCOC(=O)C1CCN(C(=O)COc2ccc(S(=O)(=O)N3CCCC3)cc2C)CC1`, the Potency was inconclusive [inhibitor, single point].
In the case of `CSc1ccccc1NC(=O)CN(C)C(=O)C1CC(=O)N(C(C)c2ccccc2)C1` (stereo unspecified), the “activity change, negative = growth inhibition” value is reported as inactive: -5.43%.
In the case of `Cc1cccc(CNc2ncncc2-c2ccc(C(=O)N(C)C)cc2)c1`, the Potency is reported as inconclusive [inhibitor, single point].
With `C=CCSc1nsc(NC(=O)Nc2cccc(C(C)=O)c2)n1` the Potency was inconclusive [inhibitor, single point].
In the case of `CC1(C)CCC(NC(=O)[C@@H](N)CCC(=O)O)CC1`, the “activity change, negative = growth inhibition” value is reported as inactive: 2.16%.
With `COc1ccc(/C=C/CN2CCC(C(=O)NC(c3ccc(F)cc3)c3ccc4ccccc4n3)CC2)cc1` (stereo unspecified) the Potency was active: 18.4 µM.
With `Cc1ccccc1NC(=O)c1ccc(F)c(S(=O)(=O)N(C)Cc2ccccc2)c1` the Potency was inconclusive [inhibitor, single point].
In the case of `O=C(Nc1cnn(Cc2ccc(Cl)c(Cl)c2)c1)C12CC3CC(CC(C3)C1)C2`, the Potency is reported as inconclusive [inhibitor, single point].
With `COc1ccccc1CNC(=O)CCCn1c(=O)c2ccccc2n(CC(=O)NC2CCCC2)c1=O` the “activity change, negative = growth inhibition” value was inactive: -22.2%.
With `COc1cc(/C=N/NC(=O)c2csc3c2CCCC3)cc(OC)c1O` the Potency was inconclusive [inhibitor, partial curve].
In the case of `Cc1ccc(Cn2c(C(=O)O)c(CNCc3ccccc3Cl)c3ccc(C)cc32)cc1`, the Potency is reported as active: 23.1 µM.
In the case of `COc1ccc(CCNS(=O)(=O)c2ccc(Br)s2)cc1`, the “activity change, negative = growth inhibition” value is reported as inactive: -11.4%.
With `CCN(c1ccccc1)S(=O)(=O)c1ccc(C(=O)Nc2nnc(-c3ccco3)o2)cc1` the Potency was inconclusive [inhibitor, single point].
For `CCCN1CNc2c(c(=O)[nH]c(=S)n2CCc2ccc(OCC)c(OCC)c2)C1`, the “activity change, negative = growth inhibition” value was inactive: -19.8%.
For `Cc1oc2c(c(C)cc3oc(=O)c(CC(=O)NCCc4ccccc4F)c(C)c32)c1C`, the Potency was inconclusive [inhibitor, single point].
In the case of `COc1ccc(NC(=O)COC(=O)c2ccccc2SCC(=O)N2CCCC2)cc1`, the activity change, negative = growth inhibition is reported as inconclusive: -35.6% [inhibitor].
For `CSc1cccc(NC(=O)CN(C)S(=O)(=O)c2ccc(F)cc2)c1`, the Potency was inconclusive [inhibitor, single point].
For `CCN(CC)C(CNC(=O)CSc1nnnn1-c1ccc(C)c(C)c1)c1ccco1` (stereo unspecified), the Potency was inconclusive [inhibitor, single point].
With `CCc1ccc(NC(=O)CN2CCN(Cc3ccccc3)S2(=O)=O)cc1` the “activity change, negative = growth inhibition” value was inactive: -16.8%.
For `CN1/C(=C\C=N\NC(=O)c2cccnc2)C(C)(C)c2ccccc21`, the “activity change, negative = growth inhibition” value was inactive: -4.02%.
For `Cc1cccc(NC(=O)CCCn2c(C)c3cnn(-c4ccccc4)c(=O)c3c2C)c1C`, the Potency was active: 20.6 µM.
